Source: the supplement of paper PMC11417369
± gives the standard deviation of the averaged measurements. Some of the results follow.

tested on: PfAP2-EXP AP2 domain (GST-tagged); test: gcPBM binding intensity (ln(normalized median fluorescence intensity)); higher = stronger DNA binding
Outline: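 Binding intensity is defined as the maximum Masliner-normalised natural-log median intensity across replicate spots for either probe orientation. It was measured on an Agilent 4 × 180k array of primer-extended double-stranded 36-bp intergenic genomic probes and negative controls, to which GST-tagged P. falciparum DNA-binding domains made in E. coli were applied for 1 h in 1× PBS with 1% milk, 0.2 mg/ml BSA, 0.5% salmon testes DNA and 0.03% Triton X-100. Detection was by Alexa488 anti-GST antibody and scanning at 488 nm.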

| Sequence | gcPBM binding intensity (ln) |
| --- | --- |
| ACAATTGCATCTATCACACATACATACATACATACA [CACACA_site5063] | 9.2 ± 0.2 |
| TTGAAGGTGGCAATGTGTACATAGAATAACCAGTGC [XGTACX_site4738] | 9.01 ± 0.41 |
| GCAAGTCCATGAACGGTGCAGGAATTAACAAAAATA | 8.72 ± 0.36 |
| AATAAAAATAAAAGCACACATAAATATATATATATT [CACACA_site1441] | 8.66 ± 0.39 |
| TCATGGCCATTTTCAGTGCATATGTGTATTTAATAT [GTGCAC_site9529] | 8.8 ± 0.4 |
| TTTATGTATTTAATATGTACATATAGTTGTTAATAA [XGTACX_site1938] | 8.53 ± 0.24 |
| AAAATGTACGCATATACACACACATAAATAGATACG [CACACA_site9124] | 8.71 ± 0.45 |
| GCTATATATTAATGTTGTACTTTATGTTCATATTGT [XGTACX_site3619] | 8.8 ± 0.3 |
| ATATATATATAATTATATAAAATATATCATATGTTA [XGTACX_negctrl_site47] | 9.37 ± 0.14 |
| AAGAAATAATTATTATGTACTTAAAAAAATTAAAAT [XGTACX_site7423] | 8.45 ± 0.38 |
| AAGAAATAAATACATACACACATATATAAATAAATA [CACACA_site7559] | 8.68 ± 0.18 |
| AAGGTATACACTGCTTTATCAAGTTTAACTCTTTTT [XGTACX_negctrl_site118] | 8.46 ± 0.37 |
| ATCATTTTTATGTACACACACATATACGTTGAATAT [CACACA_site1865] | 8.87 ± 0.42 |
| ACATCATAAAATTTATGTACACATTTTTAATTATAC [XGTACX_site7759] | 8.66 ± 0.28 |
| AAGATATGAGGGAATACACACATATTTATATTTATA [CACACA_site6846] | 8.26 ± 0.38 |
| TATAAAATTTACGTGTGTACATATTTAATAATTTTT [XGTACX_site5001] | 8.4 ± 0.4 |
| AAATTTGAAATGCATGAACACACACCGCTATAAATG [CACACA_site8230] | 8.94 ± 0.4 |
| TAAATATAGAAACACACACACATTAATACATATATT [CACACA_site3489] | 8.71 ± 0.49 |
| TAATTTTTTATATATTGTACAAATAATATATGATGT [XGTACX_site268] | 8.46 ± 0.23 |
| TTCGTAATTTATATCACACACATATATATATAATAA [CACACA_site3115] | 8.64 ± 0.37 |
| TACCCTTGCATGTAGGTGCAATTTTTTTTTTTTTTT | 9.06 ± 0.042 |
| CAACTTTATACATATAGTACAAGTTATATTTTATTA [XGTACX_site6651] | 8.02 ± 0.38 |
| AACGATTTACATCACTGTACTAATGATATACCTCAT [XGTACX_site7463] | 8.45 ± 0.23 |

| Sequence | gcPBM binding intensity (ln) |
| --- | --- |
| TATATATTTTCTTTTGCACACTGTTTTCCTTTTTTT [CACACA_site2739] | 9.14 ± 0.57 |
| TATATATATATATATTGTACTATATAGTATCTTTTT [XGTACX_site1646] | 9.98 ± 0.55 |
| CTTTCCATATATGATAGTACACGATAAAAAAAAAAA [XGTACX_site5772] | 8.64 ± 0.44 |
| TTTAAAAAAAATTCATATTATATATATATATATTAT [CACACA_negctrl_site1733] | 7.92 ± 0.23 |
| AAAGAAATAAGGTGCACACATATACATATATATATA [CACACA_site429] | 9.78 ± 0.11 |
| TAATAATAGTACTGACATCAAAATCTTATTAAAAAT [GTGCAC_negctrl_site308] | 8.29 ± 0.43 |
| TTCTTTTTTATTTTTCAACACACATAATAAATTTCT [CACACA_site8253] | 8.89 ± 0.28 |
| AAAAACAATCATTTTAAATAAAAATCTCTAATTTAA [GTGCAC_negctrl_site138] | 7.67 ± 0.35 |
| ATTTCTTTAATATACACACACCAAAACAAAAAAAAA [CACACA_site6416] | 8.72 ± 0.45 |
| TTTTCATTTTTTTTTTTTTTTTTTTTTCTTTTTTTT [CACACA_negctrl_site1312] | 8.12 ± 0.67 |
| ATTTGTTCATTTGGTTGTACATAATTTATTTTTATA [XGTACX_site785] | 8.75 ± 0.33 |
| GTTGTGTAATTCGTAACACACATAAAATATATATAA [CACACA_site6059] | 8.53 ± 0.45 |
| ATATAGTTCGATATAGTTAGTATGAATTGAAAAATA [CACACA_negctrl_site1826] | 8.38 ± 0.42 |
| AAAAAAATAAAACACACACACAAAAAAATAAAAATA [CACACA_site465] | 8.71 ± 0.47 |
| TTTTTAAAATATTTAACACACAATTTTAATGCATAA [CACACA_site6036] | 8.32 ± 0.27 |
| CACCCATACACATACAAACACACATTCTATATATAT [CACACA_site1600] | 8.91 ± 0.18 |
| GAAATTAAATGACATACACACTATATTATATATTTT [CACACA_site5693] | 8.34 ± 0.35 |
| TAGATAGATTAAAATACATGCATATTATTAAAAAAT [TGCATGCA_site739] | 8.84 ± 0.13 |
| ATTTAATGTATTTTGCGTACGAATTATTTTATTTCA [XGTACX_site7331] | 8.78 ± 0.31 |
| AATCATAAACATTATGCACACAAAAATAAAAAAAAA [CACACA_site8289] | 8.63 ± 0.29 |
| TATCTTCAATGTGAAAGTACTTAAATTGTTATAAAA [XGTACX_site2586] | 8.38 ± 0.49 |
| AGCATAAAAATGATATGTACATATATATATATATAT [XGTACX_site2836] | 10 ± 0.39 |
| CATACATACATACATACACACATACATATGTATATA [CACACA_site7216] | 9.22 ± 0.2 |

| Sequence | gcPBM binding intensity (ln) |
| --- | --- |
| TGGAATAAAAAAAGGAGTACAATTAATTATTCTTAA [XGTACX_site8299] | 8.57 ± 0.41 |
| TATATATATATATATGTGCACATATTTATATGTTTT | 10.1 ± 0.33 |
| ACTTATAATATTTAGTGTACATATTGTGACTAATAC [XGTACX_site1508] | 8.62 ± 0.25 |
| AAAAAAAAAACAAATGCATGTAATATAAGAATTACA [TGCATGCA_site908] | 9.02 ± 0.34 |
| ATTTTAAAAAATTAATGTACTTAATTAATACTGAAA [XGTACX_site7702] | 8.18 ± 0.32 |
| TATTTATAAATTTACACACACACATGTGAACATAAA [CACACA_site1909] | 8.63 ± 0.41 |
| TATCAAAAAAAAAGTAGTACGATAATAGTTTCCCAA [XGTACX_site1812] | 8.66 ± 0.53 |
| TGAATTGTAATTTATAATATACGTGGTTTCTACTTA [CACACA_negctrl_site559] | 8.18 ± 0.41 |
| ATTTAATAACGGCATGCATGTCCTTATATAAATTTA [TGCATGCA_site1012] | 9.24 ± 0.55 |
| TATTATATATTATATAGTACATATTTATGTAAGAGG [XGTACX_site3099] | 8.67 ± 0.35 |
| CCTTACCAAATAATATGTACACATTTAATGTTATAT [XGTACX_site7840] | 8.59 ± 0.23 |
| TATCAGTATACAACAACACACATAATGTTTGTCATC [CACACA_site2980] | 8.46 ± 0.42 |
| CACTTAAAAAAAATACGTACACATATATATATATAT [XGTACX_site2054] | 10.1 ± 0.33 |
| CAAAAATAAATATAAACACACAATAAATAAATAAAT [CACACA_site891] | 8.75 ± 0.58 |
| GATCATAATATTTAAAAGAATATATATAAAAAGGAA [XGTACX_negctrl_site310] | 8.66 ± 0.39 |
| ATGGTATCTTTTAGAAGTACATCATGATAATAATTT [XGTACX_site5544] | 8.47 ± 0.4 |
| GTATTAATTTATATATGTACATATGTGATATATATA [XGTACX_site5825] | 8.7 ± 0.28 |
| CAAAATTAATAAGTCACACACACATATATAATATAT [CACACA_site798] | 8.73 ± 0.45 |
| TATATTTATACAATATGTACATATTATATATATATA [XGTACX_site3098] | 9.57 ± 0.26 |
| TATAAAAATATATGCACACAAATAAAAAATTATATA [CACACA_site3629] | 8.48 ± 0.53 |
| TCATAGCACAAAAAATGTACTTATTATTTAATATTT [XGTACX_site5687] | 8.15 ± 0.27 |
| ATGTGATAATTTAATAGTACATAACAGTTTAACAAT [XGTACX_site5854] | 8.83 ± 0.3 |
| TTTGTTTTATGTGGTTGTACACAAATACAATTTAAA [XGTACX_site5156] | 8.46 ± 0.28 |

| Sequence | gcPBM binding intensity (ln) |
| --- | --- |
| TTTTTTATTAAATATATATAATAATAATAATTTGTA [CACACA_negctrl_site1719] | 7.9 ± 0.37 |
| TTATAATAAATATTTATTATATATAATATATATTAC [CACACA_negctrl_site1802] | 8.3 ± 0.35 |
| TATATTATATATTTATGTACGTATTTGTAAAAAGAT [XGTACX_site3444] | 8.76 ± 0.31 |
| ATAATAATTATATCAGTGCGCATATATATTTATTTA | 8.49 ± 0.2 |
| GTTTCCTTAATATTCACACACATATCTATAATATAT [CACACA_site6959] | 8.9 ± 0.38 |
| TTTATATGCAATTAAGTGCATAAGAAAAAAAAAGGA [GTGCAC_site9966] | 8.78 ± 0.12 |
| TTATAAAATAAACTTACACACATGAAATATTATAGT [CACACA_site7000] | 8.39 ± 0.32 |
| CAAACAAATTGTGAAACACACATATTTATATTTATA [CACACA_site7030] | 8.24 ± 0.3 |
| ATTATACAAAATGGTAAGGAAAAGGAAATTTTTTTT [CACACA_negctrl_site1090] | 8.25 ± 0.51 |
| CAATATTATATATATACACACATAATCTGTAAAAAC [CACACA_site1068] | 8.56 ± 0.42 |
| AAAAAAAAAAATATCACACACACATAAATATAAACA [CACACA_site7138] | 8.6 ± 0.61 |
| CATATATATATATATACACACATATATATTTTCTTT [CACACA_site1457] | 8.69 ± 0.15 |
| AAAGTAGGCTTATATGCACACTTTGAAATATTATAA [CACACA_site5117] | 8.41 ± 0.2 |
| ATGTCAAATTTTTGTGCACACATATATAGTTATTAT [CACACA_site2242] | 9.16 ± 0.13 |
| TATTTATAAATTTACACACACACATGGGAACATAAA [CACACA_site5111] | 8.98 ± 0.43 |
| ATAAAAATTGATTATACACACGCGCACCCACAACAA [CACACA_site3536] | 9.205 ± 0.049 |
| TAAGGATAAATAAAATGAAATGAAATAAATAAATGA [XGTACX_negctrl_site539] | 8.62 ± 0.46 |
| TATATATATCAGCAATGTACACAATGCATATTATAT [XGTACX_site4836] | 8.38 ± 0.24 |
| TTATTTTATTTTAAAAAAAACAATATAAATTCAAAG [GTGCAC_negctrl_site57] | 8.19 ± 0.39 |
| TCTACAATTATAATTACACACTATAAAAAAGAAAGA [CACACA_site2984] | 8.78 ± 0.41 |
